Reference: article PMC9769115, “Native mass spectrometric studies of IscSU reveal a concerted, sulfur-initiated mechanism of iron–sulfur cluster assembly†” (Chemical Science, 2022)

Molecular target: T1, IscS, cysteine desulfurase (E. coli), dimer with PLP bound (E. coli, UniProt P0A6B7 1-404, pyridoxal phosphate (PLP) bound to each protomer)
T1 construct: IscS, cysteine desulfurase of E. coli; Made from pET-24d as a fusion with His-tagged GST and cleaved with TEV protease; also called (IscS)2; IscS dimer; source: E. coli BL21 DE3, expressed with 100 μM PLP, purified (His-Trap, TEV cleavage)
T1 sequence (looked up): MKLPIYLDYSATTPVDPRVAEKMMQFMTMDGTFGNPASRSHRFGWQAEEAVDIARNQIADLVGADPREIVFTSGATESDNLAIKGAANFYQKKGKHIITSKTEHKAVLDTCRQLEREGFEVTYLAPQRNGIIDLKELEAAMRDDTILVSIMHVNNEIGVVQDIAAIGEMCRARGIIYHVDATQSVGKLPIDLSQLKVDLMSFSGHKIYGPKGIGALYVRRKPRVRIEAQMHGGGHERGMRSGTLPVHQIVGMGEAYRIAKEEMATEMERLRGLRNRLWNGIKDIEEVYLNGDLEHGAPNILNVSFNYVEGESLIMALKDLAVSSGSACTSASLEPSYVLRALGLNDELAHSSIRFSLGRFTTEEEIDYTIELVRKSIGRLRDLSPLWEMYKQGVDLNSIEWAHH
Test: native MS; IscS (8 μM) titrated with as isolated IscU, both in solution in 250 mM ammonium acetate pH 8.0; Waters Synapt XS; fractional intensities fitted (Dynafit) to a sequential binding model for 1-2 IscU per IscS dimer
Conditions: both partners purified

B1: IscU, Fe-S cluster scaffold protein (E. coli) (natural protein, UniProt P0ACD4 1-128, looked up)
chain: MAYSEKVIDHYENPRNVGSFDNNDENVGSGMVGAPACGDVMKLQIKVNDEGIIEDARFKTYGCGSAIASSSLVTEWVKGKSLDEAQAIKNTDIAEELELPPVKIHCSILAEDAIKAAIADYKSKREAK
notes: IscU, scaffold protein of E. coli; One polypeptide used in three metal states; As isolated it holds ~0.5 Zn2+ per protein; The apo form (25-fold DTPA) holds ~0.01 Zn2+ per protein; The Zn2+-loaded form was made with 2-fold ZnSO4; Each assay's format names the state used; also called as isolated IscU; apo-IscU; source: E. coli BL21 DE3, grown with 8.3 mg per L ZnSO4, purified (His-Trap, TEV …)
Kd: 3.26 ± 0.46 µM
stoichiometry N: 2 IscU per IscS dimer
